# Source: article PMC9911399, “Two distinct binding modes provide the RNA-binding protein RbFox with extraordinary sequence specificity”
# Numbering of substitutions follows the chain as printed; changes in the protein carry UniProt numbers. This is one part of the list.
# T1: RBFOX1 RRM RbFoxmut (Fox-RRM*) (Homo sapiens, UniProt Q9NWB1 109-208, R118D;E147R;N151S;E152T)
# T1 sequence: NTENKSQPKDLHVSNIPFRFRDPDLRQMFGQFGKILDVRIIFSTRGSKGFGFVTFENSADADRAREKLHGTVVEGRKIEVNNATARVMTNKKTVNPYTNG
# B1: UGCAUGC (DNA:RNA)
# RNA: GGGAGACCGGAAUUCAGAUUGUCCUGCAUGCUUAAAUCCCGUCGUAGCCACCA
# DNA 1: CAATCTGAATTCCGGTCTCCC
# DNA 2: TGGTGGCTACGACGGGATT
# B2: AUUGGGG (DNA:RNA)
# RNA: B1 RNA with U25A, G26U, C27U, A28G, U29G, C31G
# DNA 1: CAATCTGAATTCCGGTCTCCC
# DNA 2: TGGTGGCTACGACGGGATT
# B3: CGCGCCA (DNA:RNA)
# RNA: B1 RNA with U25C, A28G, U29C, G30C, C31A
# DNA 1: CAATCTGAATTCCGGTCTCCC
# DNA 2: TGGTGGCTACGACGGGATT
# B4: UGUUUAU (DNA:RNA)
# RNA: B1 RNA with C27U, A28U, G30A, C31U
# DNA 1: CAATCTGAATTCCGGTCTCCC
# DNA 2: TGGTGGCTACGACGGGATT
# B5: AUUUCGC (DNA:RNA)
# RNA: B1 RNA with U25A, G26U, C27U, A28U, U29C
# DNA 1: CAATCTGAATTCCGGTCTCCC
# DNA 2: TGGTGGCTACGACGGGATT
# B6: CUGUCAG (DNA:RNA)
# RNA: GGGAGACCGGAAUUCAGAUUGUCCCUGUCAGUUAAAUCCCGUCGUAGCCACCA
# DNA 1: CAATCTGAATTCCGGTCTCCC
# DNA 2: TGGTGGCTACGACGGGATT
# B7: GCCUGUG (DNA:RNA)
# RNA: B6 RNA with C25G, U26C, G27C, C29G, A30U
# DNA 1: CAATCTGAATTCCGGTCTCCC
# DNA 2: TGGTGGCTACGACGGGATT
# B8: GUGCUAU (DNA:RNA)
# RNA: B6 RNA with C25G, U28C, C29U, G31U
# DNA 1: CAATCTGAATTCCGGTCTCCC
# DNA 2: TGGTGGCTACGACGGGATT
# B9: AAUGCCC (DNA:RNA)
# RNA: B6 RNA with C25A, U26A, G27U, U28G, A30C, G31C
# DNA 1: CAATCTGAATTCCGGTCTCCC
# DNA 2: TGGTGGCTACGACGGGATT
# B10: CGUCACC (DNA:RNA)
# RNA: B1 RNA with U25C, C27U, A28C, U29A, G30C
# DNA 1: CAATCTGAATTCCGGTCTCCC
# DNA 2: TGGTGGCTACGACGGGATT
# B11: AUGAAAU (DNA:RNA)
# RNA: B6 RNA with C25A, U28A, C29A, G31U
# DNA 1: CAATCTGAATTCCGGTCTCCC
# DNA 2: TGGTGGCTACGACGGGATT
# B12: GGGCUAA (DNA:RNA)
# RNA: B6 RNA with C25G, U26G, U28C, C29U, G31A
# DNA 1: CAATCTGAATTCCGGTCTCCC
# DNA 2: TGGTGGCTACGACGGGATT
# B13: UCACCUC (DNA:RNA)
# RNA: B1 RNA with G26C, C27A, A28C, U29C, G30U
# DNA 1: CAATCTGAATTCCGGTCTCCC
# DNA 2: TGGTGGCTACGACGGGATT
# B14: UAAACCC (DNA:RNA)
# RNA: B1 RNA with G26A, C27A, U29C, G30C
# DNA 1: CAATCTGAATTCCGGTCTCCC
# DNA 2: TGGTGGCTACGACGGGATT
# B15: UGGCCGU (DNA:RNA)
# RNA: B1 RNA with C27G, A28C, U29C, C31U
# DNA 1: CAATCTGAATTCCGGTCTCCC
# DNA 2: TGGTGGCTACGACGGGATT
# B16: CCCAAUC (DNA:RNA)
# RNA: B1 RNA with U25C, G26C, U29A, G30U
# DNA 1: CAATCTGAATTCCGGTCTCCC
# DNA 2: TGGTGGCTACGACGGGATT
# B17: GAUCAUU (DNA:RNA)
# RNA: GGGAGACCGGAAUUCAGAUUGUCCGAUCAUUUUAAAUCCCGUCGUAGCCACCA
# DNA 1: CAATCTGAATTCCGGTCTCCC
# DNA 2: TGGTGGCTACGACGGGATT
# B18: GACUGUU (DNA:RNA)
# RNA: B17 RNA with U27C, C28U, A29G
# DNA 1: CAATCTGAATTCCGGTCTCCC
# DNA 2: TGGTGGCTACGACGGGATT
# B19: UGUAUGC (DNA:RNA)
# RNA: B1 RNA with C27U
# DNA 1: CAATCTGAATTCCGGTCTCCC
# DNA 2: TGGTGGCTACGACGGGATT
# B20: AAGUGAC (DNA:RNA)
# RNA: B6 RNA with C25A, U26A, C29G, G31C
# DNA 1: CAATCTGAATTCCGGTCTCCC
# DNA 2: TGGTGGCTACGACGGGATT
# B21: UGGUCGG (DNA:RNA)
# RNA: B6 RNA with C25U, U26G, A30G
# DNA 1: CAATCTGAATTCCGGTCTCCC
# DNA 2: TGGTGGCTACGACGGGATT
# B22: CGGAUGC (DNA:RNA)
# RNA: B1 RNA with U25C, C27G
# DNA 1: CAATCTGAATTCCGGTCTCCC
# DNA 2: TGGTGGCTACGACGGGATT
# B23: CAUAUAG (DNA:RNA)
# RNA: B6 RNA with U26A, G27U, U28A, C29U
# DNA 1: CAATCTGAATTCCGGTCTCCC
# DNA 2: TGGTGGCTACGACGGGATT
# B24: CCCGUGG (DNA:RNA)
# RNA: B1 RNA with U25C, G26C, A28G, C31G
# DNA 1: CAATCTGAATTCCGGTCTCCC
# DNA 2: TGGTGGCTACGACGGGATT
# B25: UAAUAGU (DNA:RNA)
# RNA: B17 RNA with G25U, U27A, C28U, U30G
# DNA 1: CAATCTGAATTCCGGTCTCCC
# DNA 2: TGGTGGCTACGACGGGATT
# B26: CCUUGUU (DNA:RNA)
# RNA: B17 RNA with G25C, A26C, C28U, A29G
# DNA 1: CAATCTGAATTCCGGTCTCCC
# DNA 2: TGGTGGCTACGACGGGATT
# B27: AUGGCGU (DNA:RNA)
# RNA: B6 RNA with C25A, U28G, A30G, G31U
# DNA 1: CAATCTGAATTCCGGTCTCCC
# DNA 2: TGGTGGCTACGACGGGATT
# B28: UUAAGUA (DNA:RNA)
# RNA: B1 RNA with G26U, C27A, U29G, G30U, C31A
# DNA 1: CAATCTGAATTCCGGTCTCCC
# DNA 2: TGGTGGCTACGACGGGATT
# B29: GCAACCA (DNA:RNA)
# RNA: B6 RNA with C25G, U26C, G27A, U28A, A30C, G31A
# DNA 1: CAATCTGAATTCCGGTCTCCC
# DNA 2: TGGTGGCTACGACGGGATT
# B30: CUUACUA (DNA:RNA)
# RNA: B6 RNA with G27U, U28A, A30U, G31A
# DNA 1: CAATCTGAATTCCGGTCTCCC
# DNA 2: TGGTGGCTACGACGGGATT
# B31: GGCCACG (DNA:RNA)
# RNA: B17 RNA with A26G, U27C, U30C, U31G
# DNA 1: CAATCTGAATTCCGGTCTCCC
# DNA 2: TGGTGGCTACGACGGGATT
# Molecular target: T1, RBFOX1 RRM RbFoxmut (Fox-RRM*)
# Assay: EMSA; HiTS-Eq, 1 nM pool, 10 min; buffer printed only for the single-RNA assays: 10 mM Tris pH 7.5, 150 mM NaCl, 3.4 mM EDTA, 0.001% NP-40, 30 C
# Details: tags: His6 N-terminal (pET28a); label: 5' 32P
# Outline: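 Relative association constants, normalised to the cognate motif, were derived by comparing read counts of each RNA species with those of the control reaction. The RNA sequenced was the free fraction, separated by 8% native PAGE after a 10 min equilibration in 50 µL of 1 nM 5′-radiolabelled RNA (7 randomized nucleotides) with increasing concentrations of purified wild-type or mutant RbFox RRM.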
row,Binder,binding signal
1,B1,1.29 KA relative to UGCAUGU
2,B2,0.12 KA relative to UGCAUGU
3,B3,0.0906 KA relative to UGCAUGU
4,B4,0.138 KA relative to UGCAUGU
5,B5,0.0832 KA relative to UGCAUGU
6,B6,0.102 KA relative to UGCAUGU
7,B7,0.184 KA relative to UGCAUGU
8,B8,0.124 KA relative to UGCAUGU
9,B9,0.0845 KA relative to UGCAUGU
10,B10,0.0455 KA relative to UGCAUGU
11,B11,0.104 KA relative to UGCAUGU
12,B12,0.0817 KA relative to UGCAUGU
13,B13,0.0699 KA relative to UGCAUGU
14,B14,0.0742 KA relative to UGCAUGU
15,B15,0.174 KA relative to UGCAUGU
16,B16,0.0536 KA relative to UGCAUGU

row,Binder,binding signal
1,B17,0.0595 KA relative to UGCAUGU
2,B18,0.173 KA relative to UGCAUGU
3,B19,0.684 KA relative to UGCAUGU
4,B20,0.0758 KA relative to UGCAUGU
5,B21,0.163 KA relative to UGCAUGU
6,B22,0.189 KA relative to UGCAUGU
7,B23,0.152 KA relative to UGCAUGU
8,B24,0.0686 KA relative to UGCAUGU
9,B25,0.0472 KA relative to UGCAUGU
10,B26,0.0862 KA relative to UGCAUGU
11,B27,0.147 KA relative to UGCAUGU
12,B28,0.121 KA relative to UGCAUGU
13,B29,0.0549 KA relative to UGCAUGU
14,B30,0.113 KA relative to UGCAUGU
15,B31,0.0894 KA relative to UGCAUGU
